# Measured values: the RNAGym collection of RNA variant scans (doi:10.7554/elife.90254)
# The source gives no read counts; variants with many changes may rest on few reads.
# B1: LINE1-mini (parent)
# chain: GGCAGAGCUCAACACAGCGUGGCAAAGUGGCUGUGGCUAGACUGCC
# Variants of: B1
# Experiment: self-cleavage, relative activity (ratio to wild type); higher = more cleavage; in vitro, sequencing; the parent is a self-cleaving ribozyme
row,Variant,self-cleavage
1,A14U G21C A26C C37A G40U,0.02
2,A14U G21C C46U,0.1
3,A14U G21U A24U U34G U43C,0.07
4,A14U G21U C23U G29C,0.24
5,A14U G21U C42U,0.38
6,A14U G21U C45A,0.12
7,A14U G21U G22A C37U G44A,0.06
8,A14U G21U G30C,0.05
9,A14U G21U U28A,1.54
10,A14U G22A A25U G27A C31A,0.1
11,A14U G22A C31U,0.05
12,A14U G22A G40U A41U C42U U43G,0.05
13,A14U G22C C37G A41C,0.03
14,A14U G22C U28G,0.04
15,A14U G22U A24G,0.58
16,A14U G22U A26C G44U,0.13
17,A14U G22U U28A,0.35
18,A14U G27A G30A U32G G35C,0.05
19,A14U G27A G35C G44A,0.02
20,A14U G27A U32A,0.07
21,A14U G27U C46A,0.88
22,A14U G29A C45A,0.09
23,A14U G29A C46U,0.07
24,A14U G29C C37G,0.04

row,Variant,self-cleavage
1,A14U G29U C31A G35U C37U U38G G40U,0
2,A14U G29U C42U,0.01
3,A14U G29U C46A,0.41
4,A14U G29U U34G,0.08
5,A14U G30A A39G C42G C46G,0.01
6,A14U G30A G44A,0.03
7,A14U G30C C37A,0.1
8,A14U G30C G35U C37U,0.03
9,A14U G30C G44A,0.03
10,A14U G33A C42U,0.02
11,A14U G35C C46A,0.07
12,A14U G35C G44A,0.28
13,A14U G35U A39C,0
14,A14U G35U A41C,0.13
15,A14U G36C A39U G44U,0.02
16,A14U G36C C46U,0
17,A14U G36U G40A,0.35
18,A14U G36U U43A,0.07
19,A14U G40C A41C C45U,0.05
20,A14U U20A G30C C31U U34C U38A,0.03
21,A14U U20A G40U U43A,0.03
22,A14U U20C U32C,0.06
23,A14U U20G A24U,0.09
24,A14U U20G G44A,0.08

row,Variant,self-cleavage
1,A14U U20G U32G,0.01
2,A14U U20G U34A,0.1
3,A14U U28A G35U U38C G44U C46U,0.01
4,A14U U28A U43C C45A,0.05
5,A14U U28C C31U C46A,0.01
6,A14U U28C U32A C45G,0.15
7,A14U U32A C42A,0.07
8,A14U U32G G33C C46A,0.08
9,A14U U32G G35C U38A,0.05
10,A14U U34A C37U,0.03
11,A14U U38A A39U,0.54
12,A14U U38C C42A,0.06
13,C15A A16C A24C C37A,0.02
14,C15A A16C A26U C42A,0.04
15,C15A A16C C18G U20A G22C G29U G30U U32G,0.06
16,C15A A16C C31G,0.01
17,C15A A16C C37A G44U,0.14
18,C15A A16C G17C G21U A24C G27U C37G,0
19,C15A A16C G22U G27U G35C,0.03
20,C15A A16G A25U C37A C42A,0.07
21,C15A A16G A26C,0.03
22,C15A A16G C23A A39G,0.02
23,C15A A16G U38G A41U,0.01
24,C15A A16U A24U C31U,0.03

row,Variant,self-cleavage
1,C15A A16U C42G,0.11
2,C15A A16U G21A,0.18
3,C15A A16U G27C G44A C46U,0.06
4,C15A A24C A25U C31A,0.01
5,C15A A24C A39U,0.02
6,C15A A24C C31U G33A,0.03
7,C15A A24C U28C U34G,0.02
8,C15A A24G A25U G33C C42U,0.03
9,C15A A24G A26U C31U U32G G36A,0.25
10,C15A A24G A39U C46U,0.01
11,C15A A24G G27U C46A,0.01
12,C15A A24G G44A C45U,0
13,C15A A24U C31G,0.01
14,C15A A24U G35C G40C U43C,0
15,C15A A25C A26U,0.07
16,C15A A25C G36U,0.02
17,C15A A25C U43C,0.03
18,C15A A25G C37A,0.18
19,C15A A25G G40C,0.02
20,C15A A25G G44A,0.12
21,C15A A25U A26C,0
22,C15A A25U A41G,0.07
23,C15A A25U C37U G40U G44C,0.03
24,C15A A25U G27A G30C A39G,0.1

row,Variant,self-cleavage
1,C15A A25U G30A G36A A39G A41C,0.18
2,C15A A26C C45U,0.01
3,C15A A26C C46A,0.09
4,C15A A26C G27A U43G,0
5,C15A A26C U28A,0.08
6,C15A A26G A39G,0.02
7,C15A A26G C45A,0.01
8,C15A A26U G33U G35C C45A,0.07
9,C15A A39C A41U,0.05
10,C15A A39U C42G,0.03
11,C15A A39U G40U G44U,0.03
12,C15A A41C U43C,0
13,C15A A41U G44U,0.01
14,C15A A41U U43G,0.03
15,C15A C18A A24U,0.02
16,C15A C18A C45U,0.05
17,C15A C18A G19U C37G,0.02
18,C15A C18A G21C,0.04
19,C15A C18A G21C A39G,0.02
20,C15A C18A G29A G33U G35U G40U,0.03
21,C15A C18A G44A,0.08
22,C15A C18A U20A C37G U38G C42A,0.01
23,C15A C18A U20C A25U G29U,0.03
24,C15A C18G A39G,0.06

row,Variant,self-cleavage
1,C15A C18G C23U U28C,0.09
2,C15A C18G G22C G27A U34C,0.04
3,C15A C18G U20A G21A U32C C46G,0.02
4,C15A C18U A26G U28G G33C,0.01
5,C15A C18U G22U G27A,0.09
6,C15A C23A A26C G29U C42A,0.13
7,C15A C23A U38A,0.15
8,C15A C23G A26U G40U,0.18
9,C15A C23G G29U A41C,0.02
10,C15A C23G G33U G35U,0.05
11,C15A C23G U34C,0.08
12,C15A C23U A24C U28C A39G,0.03
13,C15A C23U C37A,0.11
14,C15A C23U G27U,0.15
15,C15A C23U G29A G33U U34G G35U A39U G40C C46G,0.03
16,C15A C23U G29C,0.11
17,C15A C23U U38A,0.53
18,C15A C23U U43C G44U,0.1
19,C15A C31A A41G,0.02
20,C15A C31G G36C,0.12
21,C15A C31U G44U,0.02
22,C15A C37G A39U,0.01
23,C15A C42G C45A,0.01
24,C15A G17A C18A G21A G35U U38G U43A,0.03

row,Variant,self-cleavage
1,C15A G17A C18U C31A G36C,0.02
2,C15A G17A G27C C45A,0.02
3,C15A G17A G35A A41G,0.1
4,C15A G17A G36A,0.07
5,C15A G17A U34A,0.02
6,C15A G17C A39C A41U,0.01
7,C15A G17C C18A G27U G36C,0.01
8,C15A G17C C37G C46A,0.05
9,C15A G17C G29A C42U C46A,0.02
10,C15A G17C U20A G21A A41U,0.03
11,C15A G17C U20G U34C,0.04
12,C15A G17C U34C,0.01
13,C15A G17U A24C G30C U32G G36C,0.02
14,C15A G17U A26C G33U,0.09
15,C15A G17U C18A G36C C46U,0.02
16,C15A G17U U20G U28A,0.04
17,C15A G17U U28C,0.11
18,C15A G19A A26G C42A,0.05
19,C15A G19A A26U G27C C42U,0.01
20,C15A G19A G21A G22U,0.3
21,C15A G19A G21C C31G G35U U38C,0.02
22,C15A G19A G21U G36A,0.03
23,C15A G19A G27C,0.03
